Measurements as given in paper PMC12136788.
Where a chain is given by its changes, count along the chain named. The list shows a part of the results.

B1: chr12:105536279:105536280:+_ENSG00000136051_ENST00000332180|hu_hu|FALSE|FALSE (ssRNA)
RNA: GGGAGUUCUACAGUCCGACGAUCAGCACUGAACAUGUAAUGUAAUCUGGCUGCAUCAACAGCAUUUUCAUAUACAUCAUCUAAAUAAAUUGGGAAGACAGCUCGAUGCCAGUAUAAAAAACAACAGUCACAUUGUGUUUGGACCAACAGAGGAUUGAGCAUCA
B2: chr11:119967308:119967309:-_ENSMUSG00000061306_ENSMUST00000103018|mus_hu|FALSE|FALSE (ssRNA)
RNA: GGGAGUUCUACAGUCCGACGAUCAGGCAGGGGAGGCAGAUUCUCCACCGUCUCCCUGGCCUUGCCUUCAGGGGCCUCCUGGCCUCUGGGCACCGCUGCCCCGGGCUCUUGAUGCACCUCCACCUGCCUGGGUUUAUCCUCCUCCAACAGAGGAUUGAGCAUCA
B3: chr16:89885150:89885151:-_ENSMUSG00000002489_ENSMUST00000163370|mus_hu|FALSE|FALSE (ssRNA)
RNA: GGGAGUUCUACAGUCCGACGAUCGCUCUGCUCAUCGCUGUGCGCCGAGCCGGCCUCCUCCAGGCUCUCGCUGUUGGUGGUGCUCAUCUCCAGCUCCCGCCGGAAGUUCUCGUACACCCCCUGACGAGCCGCAUCCCCGGUGGACAACAGAGGAUUGAGCAUCA
B4: chr16:3748964:3748965:+_ENSMUSG00000022529_ENSMUST00000023176|mus_mus|FALSE|FALSE (ssRNA)
RNA: GGGAGUUCUACAGUCCGACGAUCUUCACCACACUCUACAUCCAUACACAGCUUUUCUGCUGCAUGUAUUCUCUGGUGCCUAAUUAGGUUUGAGUUAUUAGAAAAGUUCUUGCCACACAAGGCACACAAAUGGAGUUUCUUGGGCAACAGAGGAUUGAGCAUCA
B5: chr14:89307221:89307222:+_ENSG00000165533_ENST00000346301|hu_mus|hu_hu_hu_mus_False|78_108 (ssRNA)
RNA: GGGAGUUCUACAGUCCGACGAUCUCCUGUCUGAUUAGUGCCAGGGAGCUUCAAAGACGUUCCAGGGCGUGGGACCUGAGCAAUAGCAUUUUCAUCCAGGAUCAUUUCAGCAAUUCCUUCCUGGUCCACAUCAAUUUCAUCUAUCAACAGAGGAUUGAGCAUCA
B6: 40853835_40853955_867_CDS_ENSG00000132872_ENST00000255224|human|control|control (ssRNA)
RNA: GGGAGUUCUACAGUCCGACGAUCCUGCUCAUCCAUGGCUGGCAAGCCACGGGCUUCCUUGAUAUUGACCACAAAUGCUUUUCUCUCGAAGUUGUAUUCUAAGGAGAAGAAGAGAGUUCCCAGCUUCUCUUGUUUCUCUUCUGACAACAGAGGAUUGAGCAUCA
B7: chr2:183853844:183853845:-_ENSG00000061676_ENST00000360982|hu_hu|motif|central (ssRNA)
RNA: GGGAGUUCUACAGUCCGACGAUCGUGAAUGUGGAAAACUUCAUCCCGAAAGAGAGAGAGGCAAGAGCUACUUUGAAGAGCGGGUUUCCAAAGGUUCAGUGCUGUAGCGUCAGUAUUUAGGAUCCCAUGGCACAAAAUAAAGCCCAACAGAGGAUUGAGCAUCA
B8: chrX:69798090:69798091:-_ENSMUSG00000031343_ENSMUST00000055966|mus_mus|mus_mus_mus_hu_False|28_78 (ssRNA)
RNA: GGGAGUUCUACAGUCCGACGAUCAAGUCCCCGGGUUCUUGUCGUCUUGAUUCCCCUUGGCUAGUGGUUCCAGGGAGAAUAUUAAUCAGGAAAAGAAUCCCAAGGCUGGUCACAUAACAGUGACUUGUUUGUGUGAUUAUCAUCCAACAGAGGAUUGAGCAUCA
B9: chr3:167437968:167437969:-_ENSG00000114209_ENST00000497056|hu_hu|FALSE|FALSE (ssRNA)
RNA: GGGAGUUCUACAGUCCGACGAUCUUCAUCUCUUCCAUUGUCAUCCUCAUUCAAAAGCCAACUACAGUUGAAAAAGCAGUGCUAAAAUGCAGAGGAAUCUUCAUUCACUGCAAUAUUUCUUCUCUUUUUUGGUGAUAAAAGAAUCAACAGAGGAUUGAGCAUCA
B10: chr1:163112212:163112213:-_ENSG00000143248_ENST00000313961|hu_hu|hu_hu_hu_mus_False|48_98 (ssRNA)
RNA: GGGAGUUCUACAGUCCGACGAUCUUUUAUUAUCAGUAAGCAUGAGUUACAUACUAGGCAAAGUAUUGGAUACAAUAAUCAGGAAACAAACACAAUUGGUCCAGAAUUUAAAACUUUAUGAGCGAAGUGCUGGCACAGGACUUACAACAGAGGAUUGAGCAUCA
B11: 3703505_3703625_952_CDS_ENSG00000130764_ENST00000378251|human|control|control (ssRNA)
RNA: GGGAGUUCUACAGUCCGACGAUCCUCGGGGCUCACUCUGACUGUCAGAGGUACGGGGUUUUCAGAGACGUGCAGGACCCUGAGCAGCAGCCGGCCGGCAUCUCCCACGUCCUGCUCCUCCCCAUCACCACCUUCCCGCCUCUGCAACAGAGGAUUGAGCAUCA
B12: 120934007_120934326_209_CDS_ENSG00000088986_ENST00000242577|human|control|control (ssRNA)
RNA: GGGAGUUCUACAGUCCGACGAUCUAUGUUGUAUUUCUCCAGCGCCUGAGUAGCGCACUCCACCGAGUCCUGUUGCAUCUCUUCCGACAUGUCCGCAUUUUUGAUCACGGCCUUUCGGUCGCACAUGGUUACCGUGGAGAAGGGCAACAGAGGAUUGAGCAUCA
B13: chr12:123346578:123346579:+_ENSG00000130787_ENST00000253083|hu_mus|FALSE|FALSE (ssRNA)
RNA: GGGAGUUCUACAGUCCGACGAUCGUGCUGACUAAACUUACGAAGAAAGAAAUACCUCGCAGCAUUCAGACUAUCUCUGAUGUCCGCUGCAGAUUUGUGGCUCAGGCCUGCUGGGUCCCAGCUGCUCGAGGCAGUUCCUACUUACAACAGAGGAUUGAGCAUCA
B14: 29885535_29885655_1869_CDS_ENSMUSG00000074909_ENSMUST00000099525|mouse|control|control (ssRNA)
RNA: GGGAGUUCUACAGUCCGACGAUCAAUAACCAGUGGGAGAUAUUGCUCAAAGUCUUUGCCAAGGAUUUUACACAUUCUAGCCCAGGCUGAAACCAUGUAAGAAGUCUGAGGGUCAUCAUCUUCCAUGUUAUUUAAGUCUGAUUGCAACAGAGGAUUGAGCAUCA
B15: chr14:89307221:89307222:+_ENSG00000165533_ENST00000346301|hu_mus|hu_hu_hu_mus_False|28_98 (ssRNA)
RNA: B5 RNA with C30U, A33G, G39U, C57U, U60G, A108U
B16: chr8:97196980:97196981:+_ENSMUSG00000031776_ENSMUST00000034228|mus_hu|motif|central (ssRNA)
RNA: GGGAGUUCUACAGUCCGACGAUCCCUAUUGGGCUGGUGACAUCCAGAAUGAUCCCAUUCAUUGGCUGGAGGUAGGACCGGGUGCCGCAGAUUGUUCUGGGAAGCUGGCAGAGAAGAUGAUUUGCACAAUGAAGUCACCACUAACAACAGAGGAUUGAGCAUCA
B17: chr3:184040909:184040910:+_ENSG00000114867_ENST00000411531|hu_mus|FALSE|FALSE (ssRNA)
RNA: GGGAGUUCUACAGUCCGACGAUCGCCAAGAUUGGCAAAAGAUGGAGUGAAAUCUGGGCCACAGUUUAUGCCAGGUAGUCUGGAGGGAUCCAGUUGCCGAAGUGGUGUUUUAUUGGCCUUGUCCAGCACCACAUCAGUGAUAUGCAACAGAGGAUUGAGCAUCA
B18: chr7:135612270:135612271:-_ENSG00000105887_ENST00000393085|hu_mus|hu_hu_hu_mus_False|8_28 (ssRNA)
RNA: GGGAGUUCUACAGUCCGACGAUCGUUUUUUUCUGAGAUGUUAAAUAGUACUUCAGUGGAAAACAAAACUUAACCUUUUAUUAAUGCGUGUUGUACCAAAAGCAGACCAUGGUUUUACAUUUAUUCACUCAAAAUAUCAUUAAGCAACAGAGGAUUGAGCAUCA
B19: chr13:33351070:33351071:+_ENSG00000083642_ENST00000315596|hu_hu|motif|central (ssRNA)
RNA: GGGAGUUCUACAGUCCGACGAUCUGAUCCCACCUGAGCUGCUUUGAUAUAUGACAGCCUCUCAUAAUUACUGGUGUCACGGUUGUUGUAAAUGAAGAAUAGUUGAAUAUGGAGAGAUUAAGACACAAUUCAAAACACUUUUUACAACAGAGGAUUGAGCAUCA
B20: chr7:34927866:34927867:-_ENSMUSG00000052997_ENSMUST00000102746|mus_hu|FALSE|FALSE (ssRNA)
RNA: GGGAGUUCUACAGUCCGACGAUCGCUUUUGGCAGCAUCUUCAGCUUGUUUGGGCCCCACUUUUUCCGGGGCAUCACCAACAACUUCAAAUUCAACGUCCUUUCCUAGGUCUUCACUAUGAAGGAUGUUGAUCAAUAAAGUAUACAACAGAGGAUUGAGCAUCA
B21: chr6:110421769:110421770:-_ENSG00000112290_ENST00000392587|hu_hu|FALSE|FALSE (ssRNA)
RNA: GGGAGUUCUACAGUCCGACGAUCUUUUUCUUACUCCAACCAAUCUACUUCAUCAAAUUCUGAAUCAUCUUCCGAAUCACUAUAUUCAACAGCAAUACGGCGAGACAGGAUGGUGGCAACAUCGUUUUCAAUGCGUUCAUGCUUCAACAGAGGAUUGAGCAUCA
B22: 87525337_87525457_254_CDS_ENSG00000140948_ENST00000268616|human|control|control (ssRNA)
RNA: GGGAGUUCUACAGUCCGACGAUCGCCCCCGCCGCCGUUCAGGCUGCUCUGGAUCUGCGUGAGCUCCUGGCGCAGCACCUGCUUCUGGUGGAAGCUGAAGGCCGGGUGGUUGGAGGCCAUGGUGAACAGCAGCAGGAACUCAUCCAACAGAGGAUUGAGCAUCA

molecular target: T1, UNK ZnF1-3 (human, UniProt Q9C0B0 31-174); test: nsRBNS (natural sequence RNA bind-n-seq); RBNS binding buffer (assumed for nsRBNS): 25 mM Tris pH 7.5, 150 mM KCl, 3 mM MgCl2, 0.01% Triton X-100, 500 ug/ml BSA, 20 U/ml SUPERase-In, 4 C; UNK is unkempt and MSI1 is Musashi-1; names of the RNAs are library labels; protein concentration not given here; high values mean tight binding
T1 sequence: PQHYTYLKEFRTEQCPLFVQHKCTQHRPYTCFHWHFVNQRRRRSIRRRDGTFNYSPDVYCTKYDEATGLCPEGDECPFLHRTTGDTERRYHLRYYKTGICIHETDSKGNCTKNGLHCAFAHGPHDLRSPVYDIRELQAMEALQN

**Q.** Which binding signal does the source give for B1 here?
**A.** 2.37 enrichment R

**Q.** Which binding signal does the source give for B2 here?
**A.** 0.573 enrichment R

**Q.** Which binding signal does the source give for B3 here?
**A.** 0.43 enrichment R

**Q.** For B4, which binding signal is on record?
**A.** 0.795 enrichment R

**Q.** Which binding signal does the source give for B5 here?
**A.** 0.919 enrichment R

**Q.** Which binding signal does the source give for B6 here?
**A.** 0.638 enrichment R

**Q.** How did the binding signal turn out when B7 was run?
**A.** 2.12 enrichment R

**Q.** Which binding signal does the source give for B8 here?
**A.** 0.497 enrichment R

**Q.** For B9, which binding signal is on record?
**A.** 0.84 enrichment R

**Q.** With B10 as the binder, how does the binding signal read?
**A.** 1.46 enrichment R

**Q.** With B11 as the binder, how does the binding signal read?
**A.** 0.704 enrichment R

**Q.** B12 was tested. Which binding signal did it give?
**A.** 0.711 enrichment R

**Q.** For B13, which binding signal is on record?
**A.** 0.667 enrichment R

**Q.** How did the binding signal turn out when B14 was run?
**A.** 1.09 enrichment R

**Q.** For B15, which binding signal is on record?
**A.** 0.669 enrichment R

**Q.** For B16, which binding signal is on record?
**A.** 1.31 enrichment R

**Q.** B17 was tested. Which binding signal did it give?
**A.** 0.572 enrichment R

**Q.** With B18 as the binder, how does the binding signal read?
**A.** 0.944 enrichment R

**Q.** For B19, which binding signal is on record?
**A.** 2.19 enrichment R

**Q.** With B20 as the binder, how does the binding signal read?
**A.** 0.719 enrichment R

**Q.** With B21 as the binder, how does the binding signal read?
**A.** 0.909 enrichment R

**Q.** With B22 as the binder, how does the binding signal read?
**A.** 0.566 enrichment R
